Values quoted from earlier work in article PMC4065351.

What was measured:
[1] = test system: Nterm (position 1, -----CG----); test: UV-vis (inferred from 'similar procedures' for ref. 18); settings: free dipeptide, reduced thiol
[2] = test system: Cys1 (position 1, -----CG----); test: as above; settings: free dipeptide, reduced thiol

Substance: Cysteinylglycine (Cys-Gly) dipeptide (synthetic / not applicable)
- pKa ([1]; pKn, thiol protonated): 7.14
- pKa ([1]; pKsn, thiol deprotonated (thiolate)): 8.75
- pKa ([2]; pKns, amino group deprotonated): 9.48
- pKa ([2]; pKs, amino group protonated): 7.87

Some values that stand alone complete this part of the results.
